Experimental data reported in a collection of fitness landscapes (doi:10.1126/science.1257360).
This is one part of the list.

B1: PhoQ; a variant is named by its letters at X, in order, P23837 (parent)
chain: MKKLLRLFFPLSLRVRFLLATAAVVLVLSLAYGMVALIGYSVSFDKTTFRLLRGESNLFYTLAKWENNKLHVELPENIDKQSPTMTLIYDENGQLLWAQRDVPWLMKMIQPDWLKSNGFHEIEADVNDTSLLLSGDHSIQQQLQEVREDDDDAEMTHSVAVNVYPATSRMPKLTIVVVDTIPVELKSSYMVWSWFIYVLSANLLLVIPLLWVAAWWSLRPIEALAKEVRELEEHNRELLNPATTRELTSLVRNLNRLLKSERERYDKYRTTLTDLTHSLKTPLXXLQXXLRSLRSEKMSVSDAEPVMLEQISRISQQIGYYLHRASMRGGTLLSRELHPVAPLLDNLTSALNKVYQRKGVNISLDISPEISFVGEQNDFVEVMGNVLDNACKYCLEFVEISARQTDEHLYIVVEDDGPGIPLSKREVIFDRGQRVDTLRPGQGVGLAVAREITEQYEGKIVAGESMLGGARMEVIFGRQHSAPKDE

Variants of: B1
Test: enrichment ratio after two sorts for PhoP signalling (ratio (wild type AVST 3.29)); higher = more functional
Conditions: with PhoP (E. coli)

| Variant | enrichment ratio |
| --- | --- |
| FKPR | ≤ 0.25 |
| TQTW | ≤ 0.25 |
| HDNI | ≤ 0.25 |
| GWVY | ≤ 0.25 |
| GKRY | ≤ 0.25 |
| YFLT | ≤ 0.25 |
| IADM | ≤ 0.25 |
| RCNK | ≤ 0.25 |
| MSKQ | ≤ 0.25 |
| MDTQ | ≤ 0.25 |
| ESRS | ≤ 0.25 |
| YSHY | ≤ 0.25 |
| RRSK | ≤ 0.25 |
| VLQL | ≤ 0.25 |
| VMFA | ≤ 0.25 |
| NVSC | ≤ 0.25 |
| VPNW | ≤ 0.25 |
| NIII | ≤ 0.25 |
| EVGL | ≤ 0.25 |
| KDYL | ≤ 0.25 |
| WVSF | ≤ 0.25 |
| PYQS | ≤ 0.25 |
| FPAK | ≤ 0.25 |
| RYVL | ≤ 0.25 |
| QHSL | 0.457 |
| SMFP | ≤ 0.25 |

| Variant | enrichment ratio |
| --- | --- |
| GWYN | ≤ 0.25 |
| MASE | ≤ 0.25 |
| FKTR | ≤ 0.25 |
| NYVC | ≤ 0.25 |
| LNWA | ≤ 0.25 |
| QCCL | ≤ 0.25 |
| IRCL | ≤ 0.25 |
| KPGQ | ≤ 0.25 |
| NKGS | ≤ 0.25 |
| FWFD | ≤ 0.25 |
| RRTC | ≤ 0.25 |
| KEPT | ≤ 0.25 |
| KLAN | ≤ 0.25 |
| YLES | ≤ 0.25 |
| VIMS | ≤ 0.25 |
| PQIP | ≤ 0.25 |
| QCWV | 4.67 |
| NGCC | ≤ 0.25 |
| QPNV | ≤ 0.25 |
| LPRA | ≤ 0.25 |
| HLLG | ≤ 0.25 |
| PTNG | ≤ 0.25 |
| QSQL | ≤ 0.25 |
| FDFK | ≤ 0.25 |
| DHIY | ≤ 0.25 |
| NMST | ≤ 0.25 |

| Variant | enrichment ratio |
| --- | --- |
| SAPS | ≤ 0.25 |
| WVMM | ≤ 0.25 |
| VDCC | ≤ 0.25 |
| LYCM | ≤ 0.25 |
| IMYG | ≤ 0.25 |
| TWEA | ≤ 0.25 |
| LRTT | ≤ 0.25 |
| MGWP | ≤ 0.25 |
| NLTK | ≤ 0.25 |
| YQPI | ≤ 0.25 |
| PRHA | ≤ 0.25 |
| HRQW | ≤ 0.25 |
| KWDT | ≤ 0.25 |
| IHLY | ≤ 0.25 |
| HDNE | ≤ 0.25 |
| KGNH | ≤ 0.25 |
| WDAP | ≤ 0.25 |
| PAWV | ≤ 0.25 |
| KMFV | ≤ 0.25 |
| HMVA | ≤ 0.25 |
| LIYL | ≤ 0.25 |
| GDIR | ≤ 0.25 |
| FLKE | ≤ 0.25 |
| MLFN | ≤ 0.25 |
| WLRS | ≤ 0.25 |
| VQDG | ≤ 0.25 |

| Variant | enrichment ratio |
| --- | --- |
| MRMQ | ≤ 0.25 |
| SSHM | 1.96 |
| LLSM | ≤ 0.25 |
| RPFF | ≤ 0.25 |
| SQWE | ≤ 0.25 |
| SGGK | ≤ 0.25 |
| TKMT | 6.64 |
| MAAR | ≤ 0.25 |
| YKFS | ≤ 0.25 |
| KGCD | ≤ 0.25 |
| NTSG | ≤ 0.25 |
| QKAF | ≤ 0.25 |
| NMPK | ≤ 0.25 |
| CITF | ≤ 0.25 |
| EKVI | ≤ 0.25 |
| SNYN | 0.299 |
| PHER | ≤ 0.25 |
| ICPE | ≤ 0.25 |
| SEAA | 14.3 |
| DPFY | ≤ 0.25 |
| KLVP | ≤ 0.25 |
| SCFL | ≤ 0.25 |
| FENA | ≤ 0.25 |
| FQFL | ≤ 0.25 |
| PTKD | ≤ 0.25 |
| WVQL | ≤ 0.25 |

| Variant | enrichment ratio |
| --- | --- |
| GNMY | ≤ 0.25 |
| RRNN | ≤ 0.25 |
| IPTK | ≤ 0.25 |
| PPDH | ≤ 0.25 |
| VPTM | ≤ 0.25 |
| SCLN | 11.7 |
| AFKP | ≤ 0.25 |
| SCPR | ≤ 0.25 |
| KPIN | ≤ 0.25 |
| VAGH | ≤ 0.25 |
| WSKA | ≤ 0.25 |
| GPHD | ≤ 0.25 |
| NKFA | ≤ 0.25 |
| IKQP | ≤ 0.25 |
| LKRY | ≤ 0.25 |
| QEPR | ≤ 0.25 |
| HWAQ | ≤ 0.25 |
| TKCH | 5.23 |
| PSVL | ≤ 0.25 |
| DEFW | ≤ 0.25 |
| WKGA | ≤ 0.25 |
| GGEN | ≤ 0.25 |
| FNPY | ≤ 0.25 |
| IKFN | ≤ 0.25 |
| VQFE | ≤ 0.25 |
| YTTM | 8.49 |

| Variant | enrichment ratio |
| --- | --- |
| TCSN | 20 |
| EFAF | ≤ 0.25 |
| WIMH | ≤ 0.25 |
| NVTG | ≤ 0.25 |
| EILV | ≤ 0.25 |
| VGIW | ≤ 0.25 |
| QSEV | ≤ 0.25 |
| SWSR | ≤ 0.25 |
| DKCF | ≤ 0.25 |
| ARLG | ≤ 0.25 |
| GRPI | ≤ 0.25 |
| NDDY | ≤ 0.25 |
| VWYM | ≤ 0.25 |
| TRLF | 3.9 |
| IHTE | ≤ 0.25 |
| PPKW | ≤ 0.25 |
| VVVA | ≤ 0.25 |
| NQLF | ≤ 0.25 |
| RRML | ≤ 0.25 |
| ICLE | 1.52 |
| FPSV | ≤ 0.25 |
| VKEV | ≤ 0.25 |
| QRPG | ≤ 0.25 |
